{"source": "PubChem BioAssay AID651820", "about": "(National Center for Advancing Translational Sciences (NCATS), 2012)", "note": "The campaign covered roughly 340,000 compounds. About 12,000 (3.5%) were called active. Inconclusive means that the source gave no clear call. Such entries were picked first, then a sample of the others. The call rests on the fitted dose curve; in most records, active means well fitted inhibition curve with a large enough effect; inconclusive means small, poorly fitted or top-dose-only effect, or another doubt; inactive means no such curve, though single readings can be large or run the other way. No potency is given beside an inconclusive call; the fits are too rough. On the % scale 0 is the no-effect control and ±100 the full control effect; potency means the concentration at half of the fitted maximal effect; tags describe the fitted curve by direction and shape."}
{"assay": "qHTS Assay for Inhibitors of Hepatitis C Virus (HCV)", "settings": "Huh7.5.1 HCVcc-Cre (HCVcc is cell-culture hepatitis C virus) infection, luciferase reporter, 44 h; activity change, negative = inhibition: at 41.8 µM (top of the series) unless noted", "method_in_brief": "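1,000 cells/well; 4 h culture; + compound; + HCVcc-Cre (~0.5 moi); 44 h; luciferase substrate, RT 15 min; read 15 sec.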"}
{"smiles": "Cn1ccc2cc3c(cc21)CCN3C(=O)Nc1cccnc1", "Potency": "inconclusive [inhibitor, single point]"}
{"smiles": "Cc1ccc(C(=O)NCc2ccccn2)cc1S(=O)(=O)N1CCOCC1", "activity change, negative = inhibition": "inactive: 4.32%"}
{"smiles": "OCCC1CN(CC#Cc2ccccc2)CCN1C1CCCC1", "note": "(centres undefined)", "activity change, negative = inhibition": "inactive: -4.32%"}
{"smiles": "Cc1cccc(-n2c(C)cc(/C=N/NC(=O)c3cccc([N+](=O)[O-])c3C)c2C)c1", "Potency": "inconclusive [inhibitor, full curve]"}
{"smiles": "CCOC(=O)C1(CCOc2ccccc2)CCN(Cc2cccc(OC)c2)CC1", "Potency": "active: 11.2 µM"}
{"smiles": "c1ccc(-c2noc(-c3ccc4c(c3)OCO4)n2)nc1", "Potency": "inconclusive [inhibitor, single point]"}
{"smiles": "CCOc1cc(/C=N/NC(=O)c2ccccc2-n2cccc2)ccc1O", "Potency": "inconclusive [inhibitor, single point]"}
{"smiles": "CCc1nc2ccc(C(=O)N3CCN(c4cccc(C)c4C)CC3)cc2nc1CC", "Potency": "inconclusive [inhibitor, single point]"}
{"smiles": "O=[N+]([O-])c1c(NCCO)cc(Sc2nc3ccccc3s2)c2nonc12", "Potency": "inconclusive [inhibitor, single point]"}
{"smiles": "CN(Cc1ccccc1)Cc1nc2c(c(=O)n(C)c(=O)n2C)n1CCc1ccccc1", "Potency": "active: 35.5 µM"}
{"smiles": "Cc1cc(OCc2cc(C(=O)N(C)CCOc3ccccc3)no2)cc(C)c1Cl", "Potency": "inconclusive [inhibitor, single point]"}
{"smiles": "COc1ccc(CN2CCN(Cc3ccccc3OC)CC2)cc1", "activity change, negative = inhibition": "inactive: 5.66%"}
{"smiles": "COc1ccc(NS(=O)(=O)c2cc(NC(=O)Cn3cnc4c3c(=O)n(C)c(=O)n4C)ccc2C)cc1", "Potency": "inconclusive [inhibitor, single point]"}
{"smiles": "CCCN1C(=O)/C(=N\\OCC(=O)NC23CC4CC(CC(C4)C2)C3)c2ccccc21", "Potency": "inconclusive [inhibitor, single point]"}
{"smiles": "Cc1ccccc1CSc1nc2n(n1)C(c1cccs1)C1=C(CCCC1=O)N2", "note": "(centres undefined)", "Potency": "inconclusive [inhibitor, single point]"}
{"smiles": "O=C(CN1CCC(C(=O)c2ccc(Cl)cc2)CC1)Nc1ccc2c(c1)OCCO2", "Potency": "inconclusive [inhibitor, single point]"}
{"smiles": "Cc1ccnc(NC(=O)/C=C/c2ccccc2Cl)c1", "Potency": "inconclusive [inhibitor, partial curve]"}
{"smiles": "COc1ccc(CCNC(=O)COc2ccc(N(C)S(=O)(=O)c3ccc(C)cc3)cc2)cc1OC", "Potency": "inconclusive [inhibitor, single point]"}
{"smiles": "COc1ccc(/C(C)=N/NC(=O)c2nnn(-c3nonc3N)c2-c2ccccc2)cc1", "activity change, negative = inhibition": "inactive: -12%"}
{"smiles": "COC(=O)CCC(=O)OC1(C)C(=O)C2=COC(c3ccc(OC)cc3)=CC2=C(Br)C1=O", "note": "(centres undefined)", "activity change, negative = inhibition": "inactive: 14%"}
{"smiles": "Cc1nnc(NC(=O)C2CCN(S(=O)(=O)c3cc([N+](=O)[O-])ccc3Cl)CC2)o1", "activity change, negative = inhibition": "inactive: 12.8%"}
{"smiles": "CCOC(=O)c1c(NC(=S)NC(=O)c2ccc(Cn3cc(Cl)cn3)o2)sc2c1CCC(C)C2", "note": "(centres undefined)", "Potency": "inconclusive [inhibitor, partial curve, poor fit]"}
{"smiles": "COc1ccc(CCNC(=O)CSc2nnc(CNC(=O)c3cc(OC)c(OC)c(OC)c3)o2)cc1OC", "activity change, negative = inhibition": "inactive: 8.11%"}
{"smiles": "O=C(CSc1nnc(CCCN2C(=O)c3cccc4cccc(c34)C2=O)n1-c1ccccc1)N1CCCCC1", "activity change, negative = inhibition": "inactive: -0.755%"}
{"smiles": "CCOc1ccc(C(=O)N/N=C/c2ccc(-c3ccc(S(=O)(=O)Nc4ncccn4)cc3)o2)cc1", "Potency": "inconclusive [inhibitor, partial curve, poor fit]"}
{"smiles": "O=C(CN(Cc1ccccc1)S(=O)(=O)c1ccccc1)N/N=C/c1ccc2c(c1)OCO2", "Potency": "inconclusive [inhibitor, single point]"}
{"smiles": "CC1CCC2(CC1)NC(=O)N(CC(=O)Nc1ccc3[nH]c(=O)[nH]c3c1)C2=O", "note": "(centres undefined)", "Potency": "inconclusive [inhibitor, single point]"}
{"smiles": "COc1ccc(COc2ccsc2C(=O)Nc2ccc(Cl)cc2)cc1", "Potency": "inconclusive [inhibitor, partial curve]"}
{"smiles": "CCN(CC(=O)Nc1c(F)cccc1F)C(=O)C1CCN(c2ncnc3sc(C)c(C)c23)CC1", "Potency": "inconclusive [inhibitor, single point]"}
{"smiles": "COc1cccc(NC(=O)Nc2ccc(C)c(Cl)c2)c1", "activity change, negative = inhibition": "inactive: -20.9%"}
{"smiles": "COCCNC(=O)C(c1ccc(F)cc1)N(Cc1ccccc1)C(=O)CCC(=O)Nc1nccs1", "note": "(centres undefined)", "activity change, negative = inhibition": "inactive: -2.66%"}
{"smiles": "O=C(Nc1nc2ccccc2[nH]1)c1ccccc1", "Potency": "inconclusive [inhibitor, full curve, poor fit]"}
{"smiles": "Cc1ccc(-n2c(C)cc(/C=N/NC(=O)CC3(C)OCCO3)c2C)c(C)c1", "activity change, negative = inhibition": "inactive: -2.77%"}
{"smiles": "C/C(=N\\NC(=O)C1(C)CC1(Br)Br)c1cccc(NC(=O)C2CCC2)c1", "note": "(centres undefined)", "Potency": "inconclusive [inhibitor, single point]"}
{"smiles": "O=C(c1ccccc1)c1c(-c2ccccc2)[nH]n(-c2ccccc2)c(=O)c1=O", "activity change, negative = inhibition": "inactive: 5.62%"}
{"smiles": "Cc1cc(NC(=O)c2noc3c2CCc2ccccc2-3)no1", "activity change, negative = inhibition": "inactive: 11.3%"}
{"smiles": "O=C(NC(=S)NNC(=O)c1ccccc1O)c1ccc([N+](=O)[O-])cc1", "Potency": "inconclusive [inhibitor, single point]"}
{"smiles": "Cc1ccc(NC(=O)CN(C)C(=O)c2sc3cc(Cl)ccc3c2Cl)cc1", "activity change, negative = inhibition": "inactive: -3.87% [at 8.37 µM]"}
{"smiles": "COc1ccc(S(=O)(=O)N2CCCC2CNC(=O)C(=O)NCc2cccs2)cc1", "note": "(centres undefined)", "activity change, negative = inhibition": "inactive: -1.44%"}
{"smiles": "COc1ccc(S(=O)(=O)N2CCCCC2)cc1C(C)C", "activity change, negative = inhibition": "inactive: 0.159%"}
{"smiles": "Cc1cc(OCCCC(=O)NCCN2C(=O)S/C(=C\\c3cccnc3)C2=O)ccc1Cl", "Potency": "active: 10 µM"}
{"smiles": "CCOc1ccc(C(=O)NC(=S)N(Cc2ccccc2)Cc2ccccc2)cc1", "activity change, negative = inhibition": "inactive: -20.9%"}
{"smiles": "CC(=O)Nc1ccc(NC(=O)c2nc(S(=O)(=O)Cc3cccc(C)c3)ncc2Cl)cc1", "Potency": "inconclusive [inhibitor, single point]"}
{"smiles": "O=S(=O)(Nc1ccc2nc(-c3ccco3)[nH]c2c1)c1ccccc1", "Potency": "inconclusive [inhibitor, single point]"}
